Measured values taken from a collection of fitness landscapes (doi:10.1016/j.celrep.2020.107928).
Whole data set: some 81,000 sequences, median “one-hybrid fitness for binding NBS DNA” near -0.1, cut for the highest 2% near 0.36. The list shows a part of the results.

B1: Caulobacter ParB omega fusion; a variant is named by its letters at X, in order, B8GW30 (parent)
chain: MESVVVGEPGMSEGRRGLGRGLSALLGEVDAAPAQAPGEQLGGSREAPIEILQRNPDQPRRTFREEDLEDLSNSIREKGVLQPILVRPSPDTAGEYQIVAGERAWRAAQRAGLKTVPIMVRELDDLAVLEIGIIENVQRADLNVLEEALSYKVLMEKFERTQENIAQTIGKSXSHVANXMRLLXLPDEVQSYLVSGELTAXHARAIAAAADPVALAKQIIEGGLSVRETEALARKAPNLSAGKSKGGRPPRVKDTDTQALESDLSSVLGLDVSIDHRGSTGTLTITYATLEQLDDLCNRLTRGI

Variants of: B1
Assay: one-hybrid fitness for binding NBS DNA (the Noc-binding site; scaled: cognate 1, non-cognate 0); higher = stronger binding
Conditions: with NBS DNA site
Summary of the method: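 Values were rescaled so that cognate is 1 and non-cognate is 0. Each is a fitness, the log change in a variant's read ratio to wild type from Illumina reads of plasmids before and after selection, with three replicate libraries pooled and variants under 10 reads dropped. Selection of the Caulobacter ParB libraries, four specificity codons randomised, used E. coli USO with a HIS3 reporter, site 19 bp from the promoter, on M9-minus-histidine with 0.1 mM IPTG and 5 mM 3-AT for 48 hours at 37°C.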

Point of comparison: QTND, “one-hybrid fitness for binding NBS DNA” value 0.227. Against it:
- TLSI — lower, ≤ 0.2
- NHVF — lower, ≤ 0.2
- SSKG — lower, ≤ 0.2
- NQTC — lower, ≤ 0.2
- YLFG — lower, ≤ 0.2
- AERW — lower, ≤ 0.2
- ATET — lower, ≤ 0.2
- CHDT — lower, ≤ 0.2
- EGAY — lower, ≤ 0.2
- AWQF — lower, ≤ 0.2
- RFVN — lower, ≤ 0.2
- IKCT — lower, ≤ 0.2
- EPYS — lower, ≤ 0.2
- PEYR — lower, ≤ 0.2
- KDKS — lower, ≤ 0.2
- KKKI — lower, ≤ 0.2
- ARQC — lower, ≤ 0.2
- NVQW — lower, ≤ 0.2
- QTDK — lower, ≤ 0.2
- TSRR — higher, 0.253
- FLTR — lower, ≤ 0.2
- RRVY — higher, 0.301
- AWPG — lower, ≤ 0.2
- TRYA — lower, ≤ 0.2
- TRIL — lower, ≤ 0.2
- ERAK — lower, ≤ 0.2
- NRCA — lower, ≤ 0.2
- NYKS — lower, ≤ 0.2
- SFEL — lower, ≤ 0.2
- SVQG — lower, ≤ 0.2
- CGSD — lower, ≤ 0.2
- RIPF — lower, ≤ 0.2
- KYRV — lower, ≤ 0.2
- ADGR — lower, ≤ 0.2
- TDRL — lower, ≤ 0.2
- NFSF — lower, ≤ 0.2
- GESY — lower, ≤ 0.2
- SIIN — lower, ≤ 0.2
- TMIC — lower, ≤ 0.2
- CHNG — lower, ≤ 0.2
- KAYT — lower, ≤ 0.2
- GTGM — lower, ≤ 0.2
- ASGL — lower, ≤ 0.2
- HARE — lower, ≤ 0.2
- SDRW — lower, ≤ 0.2
- DVKR — lower, ≤ 0.2
- FPVV — lower, ≤ 0.2
- RLRL — lower, ≤ 0.2
- DWLG — lower, ≤ 0.2
- WPLF — lower, ≤ 0.2
- PAPS — lower, ≤ 0.2
- GPKY — lower, ≤ 0.2
- NDCC — lower, ≤ 0.2
- LEAR — lower, ≤ 0.2
- ARVC — lower, ≤ 0.2
- RVEY — lower, ≤ 0.2
- RYGR — higher, 0.432
- EFGP — lower, ≤ 0.2
- CRPN — lower, ≤ 0.2
- RPNK — lower, ≤ 0.2
- STVM — lower, ≤ 0.2
- HCMT — lower, ≤ 0.2
- HMKR — lower, ≤ 0.2
- PCEH — lower, ≤ 0.2
- SAIH — lower, ≤ 0.2
- RRSI — lower, 0.213
- YSKT — lower, ≤ 0.2
- RTHY — lower, 0.208
- YTKL — lower, ≤ 0.2
- GYAC — lower, ≤ 0.2
- HRSC — lower, ≤ 0.2
- NKYR — lower, ≤ 0.2
- SQDI — lower, ≤ 0.2
- PALP — lower, ≤ 0.2
- TQPR — lower, ≤ 0.2
- GIMC — lower, ≤ 0.2
- LRMI — lower, ≤ 0.2
- VCER — lower, ≤ 0.2
- GTSN — lower, ≤ 0.2
- NSQD — lower, ≤ 0.2
- PIMH — lower, ≤ 0.2
- HMRS — lower, ≤ 0.2
- PLPT — lower, ≤ 0.2
- CRDS — lower, ≤ 0.2
- LTNA — lower, ≤ 0.2
- AYCS — lower, ≤ 0.2
- QVAD — lower, ≤ 0.2
- WMLC — lower, ≤ 0.2
- AHTA — lower, ≤ 0.2
- KVML — lower, ≤ 0.2
- AFFE — lower, ≤ 0.2
- TMPR — lower, ≤ 0.2
- ETTN — lower, ≤ 0.2
- NKGM — lower, ≤ 0.2
- GSYA — lower, ≤ 0.2
- WKHR — lower, ≤ 0.2
- TVLS — lower, ≤ 0.2
- AAMG — lower, ≤ 0.2
- QVKD — lower, ≤ 0.2
- RWIS — lower, ≤ 0.2
- NWIG — lower, ≤ 0.2
- HMCG — lower, ≤ 0.2
- RKTF — lower, ≤ 0.2
- APGT — lower, ≤ 0.2
- TFRI — lower, ≤ 0.2
- LTEV — lower, ≤ 0.2
- AYAF — lower, ≤ 0.2
- RTDE — lower, ≤ 0.2
- PSMV — lower, ≤ 0.2
- IAPK — lower, ≤ 0.2
- HYVL — lower, ≤ 0.2
- ALIA — lower, ≤ 0.2
- SFPT — lower, ≤ 0.2
- CYYT — lower, ≤ 0.2
- KNWG — lower, ≤ 0.2
- RHYW — lower, ≤ 0.2
- ILFW — lower, ≤ 0.2
- DTLN — lower, ≤ 0.2
- VMTN — lower, ≤ 0.2
- LRYG — lower, ≤ 0.2
- GWPG — lower, ≤ 0.2
- PHDI — lower, ≤ 0.2
- KPYI — lower, ≤ 0.2
- KPGC — lower, ≤ 0.2
- HVTR — lower, ≤ 0.2
- QHRQ — higher, 0.33
- YVGY — lower, ≤ 0.2
- PVLP — lower, ≤ 0.2
- AHST — lower, ≤ 0.2
- HNNE — lower, ≤ 0.2
- TWYA — lower, ≤ 0.2
- FKYS — lower, ≤ 0.2
- SFPH — lower, ≤ 0.2
- ARVR — lower, ≤ 0.2
- FHID — lower, ≤ 0.2
- CCRG — lower, ≤ 0.2
- LAQL — lower, ≤ 0.2
- PWGV — lower, ≤ 0.2
- IHRA — lower, ≤ 0.2
- VGAL — lower, ≤ 0.2
- GPSS — lower, ≤ 0.2
- WVRP — lower, ≤ 0.2
- STQC — lower, ≤ 0.2
- TRGT — higher, 0.283
- NQTW — lower, ≤ 0.2
- YKFG — lower, ≤ 0.2
- VYEA — lower, ≤ 0.2
- WNNE — lower, ≤ 0.2
- NHPH — lower, ≤ 0.2
- RGCT — lower, ≤ 0.2
- DAYT — lower, ≤ 0.2
- PNGG — lower, ≤ 0.2
